The supplement of paper PMC8792480
The other results are listed elsewhere or left out. Single values are uncertain, as repeats are few or missing.

Test system: A549
Assay: cell-surface PD-L1 MFI ratio relative to cisplatin alone (isotype-subtracted); higher = higher PD-L1 surface expression
Details: inducer: cisplatin 4 uM; 10 µM; 24 h
Protocol: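 A549 and H460 NSCLC cells were treated with each library drug at 10 uM, then with radiation (8 Gy) or cisplatin (4 uM), and incubated for 24 h. Cell-surface PD-L1 was measured by flow cytometry as an MFI ratio: (MFI drug+inducer - MFI isotype)/(MFI inducer alone - MFI isotype). Hits were defined as ratio < 0.75.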

cell-surface PD-L1 MFI ratio, inactive:
CNC(=O)c1ccccc1Sc1ccc2c(/C=C/c3ccccn3)n[nH]c2c1 [Axitinib] 1.03
Cc1cn(CCN2CCN(c3ccccc3-c3cc(C#N)cc(C(=O)NCCCN4CCCC4)c3)CC2)c2ccccc12 1.03
Nc1ncn([C@@H]2O[C@H](CO)[C@@H](O)[C@H]2O)c(=O)n1 [Azacitidine] 0.924
CN(C)c1cccc(-c2c3c(=O)n(-c4ccccc4Cl)[nH]c3cc(=O)n2C)c1 0.815
c1ccc2c(-c3cnn4cc(-c5ccc(N6CCNCC6)cc5)cnc34)ccnc2c1 3.83
CNc1nc(-c2ccc3c(N)n[nH]c3c2)cc(N2C[C@@H](C(=O)NC3CCCCC3)CC[C@H]2C)n1 1.07
C[C@H](NC(=O)c1c(N)nn2cccnc12)c1cc2cccc(C#Cc3cnn(C)c3)c2c(=O)n1-c1ccccc1 1.16
Cc1ccc(C(=O)N(CCCN)[C@@H](c2nc3cc(Cl)ccc3c(=O)n2Cc2ccccc2)C(C)C)cc1 1.1
CN(C)Cc1cccc(N=C(c2ccccc2)c2c(O)[nH]c3cc(C(=O)N(C)C)ccc23)c1 1.21
C[C@@H]1CCN(C(=O)CC#N)C[C@@H]1N(C)c1ncnc2[nH]ccc12 1.13
COc1ccc(N2C(=O)/C(=C\c3ccc([N+](=O)[O-])s3)SC2=S)cc1 4.08
COc1ccc(CCc2nc3cc(-c4c(C)noc4C)ccc3n2C[C@H](C)N2CCOCC2)cc1Cl 0.918
O=C(Nc1ccc2[nH]nc(-c3ccncc3)c2c1)[C@@H]1CCN(CC(=O)N2CCN(c3ccc(-c4ncccn4)cc3)CC2)C1 0.944
N#CC[C@H](C1CCCC1)n1cc(-c2ncnc3[nH]ccc23)cn1 1.37
Nc1nc(F)nc2c1ncn2[C@@H]1O[C@H](CO)[C@@H](O)[C@@H]1O [Fludarabine] 0.791
C=CC(=O)N1CCC[C@@H](n2nc(-c3ccc(Oc4ccccc4)cc3)c3c(N)ncnc32)C1 [Ibrutinib] 0.829
Oc1c2ccccc2c2c3c(cccc13)N=N2 0.989
O=C(/C=C/c1cncc(F)c1)c1c(-c2ccccc2)c2cc(Cl)ccc2[nH]c1=O 2.86
CCc1ccc(C(=O)Nc2cc(CN3CCN(C)CC3)cc(C(F)(F)F)c2)cc1C#Cc1cnc2ccnn2c1 1.09
O=C(O)c1ccc2c3c1cccc3c(=O)n1c3ccccc3nc21 1.43
NC1(c2ccc(-c3nc4ccn5c(=O)[nH]nc5c4cc3-c3ccccc3)cc2)CCC1 0.923
CC1(C)[C@@H](O[C@H]2O[C@H](C(=O)O)[C@@H](O)[C@H](O)[C@H]2O[C@@H]2O[C@H](C(=O)O)[C@@H](O)[C@H](O)[C@H]2O)CC[C@]2(C)[C@H]3C(=O)C=C4[C@@H]5C[C@@](C)(C(=O)O)CC[C@]5(C)CC[C@@]4(C)[C@]3(C)CC[C@@H]12 [Glycyrrhizin (Glycyrrhizic Acid)] 0.958
CC[C@@H](N)CNc1ccnc(-c2cc(-c3cnn(C)c3)ccc2O)n1 0.862
FC(F)(F)c1ccc(CNc2ccc(Cc3c[nH]c4ncc(Cl)cc34)cn2)cn1 [Pexidartinib (PLX3397)] 1.18
CC(=O)O[C@H]1C(=O)[C@@]2(C)[C@H]([C@H](OC(=O)c3ccccc3)[C@]3(O)C[C@H](OC(=O)[C@H](O)[C@@H](NC(=O)c4ccccc4)c4ccccc4)C(C)=C1C3(C)C)[C@]1(OC(C)=O)CO[C@@H]1C[C@@H]2O [Paclitaxel] 0.995
CC(C)(C)c1nc(-c2ccc(NC(=O)Nc3cccc(C(F)(F)F)c3)c3ccccc23)c2c(N)nccn12 [kira6] 2.67

cell-surface PD-L1 MFI ratio, active:
CC(C)(C(=O)NCC(F)(F)C(F)(F)F)C(=O)N[C@@H]1C(=O)Nc2ccccc2-c2ccccc21 0.662
CCCc1cc(C)[nH]c(=O)c1CNC(=O)c1cc(-c2ccc(N3CCN(C(C)C)CC3)nc2)cc2c1cnn2C(C)C 0.582
Cc1ccc(S(=O)(=O)OCC(=O)Nc2ccc(C(=O)O)c(O)c2)cc1 0.636
CCOC(=O)C1=C(C)NC(=S)NC1c1cccc(O)c1 (stereo not given) [Monastrol] 0.426
CCN(c1cc(-c2ccc(CN3CCOCC3)cc2)cc(C(=O)NCc2c(C)cc(C)[nH]c2=O)c1C)C1CCOCC1 [Tazemetostat (EPZ-6438)] 0.527
O=C(N/N=C/c1ccc(O)c(O)c1)c1cc2ccccc2cc1O [Dynasore] 0.75
CC(C)N1CCN(Cc2cnc(-c3cc(-c4cccc5[nH]ccc45)cc4[nH]ncc34)o2)CC1 0.686
O=C(NC[C@H](O)CN1CCc2ccccc2C1)c1cc(NC2COC2)ncn1 0.539
Nc1ccc2ncnc(NCCc3ccc(Oc4ccccc4)cc3)c2c1 0.739
COc1cc2nccc(Oc3ccc(NC(=O)NC4CC4)c(Cl)c3)c2cc1C(N)=O [Lenvatinib] 0.512
CC(C)(C)C[C@@H]1N[C@@H](C(=O)N[C@H]2CC[C@H](O)CC2)[C@H](c2cccc(Cl)c2F)[C@]12C(=O)Nc1cc(Cl)ccc12 0.63
COc1ncc(-c2ccc3nccc(-c4ccnnc4)c3c2)cc1NS(=O)(=O)c1ccc(F)cc1F 0.627
c1ccc(-c2nn3c(c2-c2ccnc4cc(OCCN5CCOCC5)ccc24)CCC3)nc1 0.67
Cc1cnc(NC(=O)Nc2cc(Br)c(C)cc2OC[C@@H]2CNCCO2)cn1 0.652
